Laboratory results from article PMC4336329 (PLoS ONE, 2015).
About 2,200 (0.71%) of roughly 310,000 compounds showed an effect of 50% or more. The effect is printed as a negative number. This is one part of the list.

molecular target: human ether-à-go-go-related gene (hERG) potassium channel (human, UniProt Q12809); test: primary screen, population patch clamp on CHO cells stably expressing hERG
Sequence (Q12809 whole entry, looked up): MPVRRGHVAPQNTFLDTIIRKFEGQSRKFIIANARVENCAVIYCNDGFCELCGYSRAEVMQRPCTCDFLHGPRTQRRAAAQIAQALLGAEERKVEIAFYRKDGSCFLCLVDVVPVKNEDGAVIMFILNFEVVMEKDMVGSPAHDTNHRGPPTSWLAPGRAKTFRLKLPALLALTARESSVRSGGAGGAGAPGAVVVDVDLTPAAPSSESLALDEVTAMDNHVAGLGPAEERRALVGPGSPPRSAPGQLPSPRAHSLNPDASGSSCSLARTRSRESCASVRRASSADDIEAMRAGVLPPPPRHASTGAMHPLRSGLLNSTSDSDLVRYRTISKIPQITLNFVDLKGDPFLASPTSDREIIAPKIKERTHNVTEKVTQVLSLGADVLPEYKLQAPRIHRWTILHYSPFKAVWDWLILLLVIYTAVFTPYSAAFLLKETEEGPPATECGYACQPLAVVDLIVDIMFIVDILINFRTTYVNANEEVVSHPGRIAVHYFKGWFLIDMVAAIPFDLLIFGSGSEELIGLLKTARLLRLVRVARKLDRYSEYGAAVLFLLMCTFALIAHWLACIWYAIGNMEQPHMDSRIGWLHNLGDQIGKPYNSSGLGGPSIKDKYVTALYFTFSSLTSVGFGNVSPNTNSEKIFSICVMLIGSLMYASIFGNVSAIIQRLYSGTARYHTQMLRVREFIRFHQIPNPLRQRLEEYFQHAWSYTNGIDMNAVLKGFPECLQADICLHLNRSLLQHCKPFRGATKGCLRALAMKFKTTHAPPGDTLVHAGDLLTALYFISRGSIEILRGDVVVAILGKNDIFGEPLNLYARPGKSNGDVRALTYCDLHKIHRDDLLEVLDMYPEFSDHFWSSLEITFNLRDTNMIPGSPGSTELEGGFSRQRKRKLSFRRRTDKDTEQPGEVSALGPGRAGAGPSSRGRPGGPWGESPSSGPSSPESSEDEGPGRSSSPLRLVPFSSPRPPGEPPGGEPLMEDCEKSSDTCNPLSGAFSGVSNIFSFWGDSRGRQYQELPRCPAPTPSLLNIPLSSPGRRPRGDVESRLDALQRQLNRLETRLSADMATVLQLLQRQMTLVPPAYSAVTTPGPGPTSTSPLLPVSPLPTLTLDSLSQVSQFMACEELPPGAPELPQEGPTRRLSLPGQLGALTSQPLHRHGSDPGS

Structure (SMILES)	hERG current change (%, negative = inhibition) at 1uM
CS(=O)(=O)N(CC(=O)Nc1ccccc1C(=O)NCc1ccco1)c1ccccc1F	-1.41%
CC(OC(=O)CCC(=O)c1cccs1)C(=O)NC1CCCCC1C (stereo not drawn)	0.622%
Cl.N=c1n(CCN2CCCCC2)c2ccccc2n1CC(O)c1ccco1 (stereo not drawn)	-4.15%
O=C(O)CSc1c2c(nc3cc(C(=O)NCCN4CCOCC4)ccc13)CCC2	-1.36%
CCOP(=O)(OCC)c1cc(C)c(O)c(C(C)(C)C)c1	8.82%
Cn1cc(C(=O)OCC(=O)N2CCCC2)c2ccccc21	6.85%
CCOC(=O)CC(NC(=O)c1cc2cccc(OC)c2oc1=O)c1cccc([N+](=O)[O-])c1 (stereo not drawn)	5.93%
COc1ccc(-c2cc(=[NH+]c3cccc(C(=O)O)c3)c3cc(C)ccc3o2)cc1.[O-][Cl+3]([O-])([O-])[O-]	6.72%
COCc1cc(C)nc(SCC(=O)Nc2cccc(C)c2)c1C#N	16.6%
CC(=O)c1ccc(OCC(=O)N(C)CC(=O)Nc2ccc(N3CCOCC3)cc2)cc1	5.34%
CCN(CC(=O)Nc1cccc(S(=O)(=O)N2CCOCC2)c1)Cc1ccccc1	13.4%
COc1ccc(C(=O)Nc2ccc(Oc3nc(C)nc4sc(-c5ccccc5)cc34)cc2)cc1OC	12.5%
Cc1cccc(C)c1NC(=O)CNCC(=O)N(C)C	-2.22%
CCc1cc2c(COC(=O)c3c(C)noc3C)cc(=O)oc2cc1O	17%
O=C1CCc2cc(S(=O)(=O)Nc3cccc(F)c3)cc3c2N1CC3	-5.06%
CC(C)Oc1cccc(-c2cc(C(=O)N3CCN(c4ncccn4)CC3)c3ccccc3n2)c1	17.8%
O=C(CCc1ccccc1)Nc1ccc(S(=O)(=O)N2CCCC2)cc1	3.63%
COc1ccccc1C1=NOC(Cn2c(=O)c3c(ncn3C)n(C)c2=O)C1 (stereo not drawn)	5.97%
N#CCCN(CCC#N)C(=O)C1c2ccccc2Oc2ccccc21	13.7%
COc1ccc(-c2cn3cccnc3n2)cc1NC(=O)C(C)Oc1ccccc1 (stereo not drawn)	13.6%
CCCOc1ccc(C2C(=O)N(C3CCCCCC3)CC(=O)N2Cc2ccco2)cc1OC (stereo not drawn)	-8.54%
COC(=O)CCS(=O)(=O)c1ccc(NC(C)=O)cc1	16.1%
Cn1cc(CN2CCCC(C(=O)Nc3ccc(-c4cccc(F)c4)cc3)C2)cn1 (stereo not drawn)	3.47%

Structure (SMILES)	hERG current change (%, negative = inhibition) at 1uM
CCOC(=O)CSc1nnc(NC(=O)c2cccc([N+](=O)[O-])c2C)s1	6.75%
CCCCCCCCNC(CO)(CO)CO	11.5%
COc1ccc(C(=O)n2nnc3ccccc32)cc1Br	12.5%
Cc1ccc(C)c(OCCC(=O)Nc2cccc(S(=O)(=O)N3CCCC3)c2)c1	13%
CCOc1ccc(Cl)cc1CNCCCSc1ncccn1	2.25%
CCOc1ccccc1N1CC(C(=O)Nc2cc(Cl)ccc2C)CC1=O (stereo not drawn)	5.84%
CC1(C)CC(=O)N(Cc2ccccc2)C(=O)C1	8.7%
CCCS(=O)(=O)N1CCCC(C(=O)NCCCN2CCCC2=O)C1 (stereo not drawn)	14%
COc1cccc(OCC(=O)Nc2c3c(nn2-c2ccccc2)CS(=O)(=O)C3)c1	-4.86%
Cc1ccc(Cl)cc1NS(=O)(=O)c1ccc2c(c1)NC(=O)C(C)C(=O)N2 (stereo not drawn)	14%
CCCCC(Nc1ncnc2ccccc12)C(=O)O (stereo not drawn)	5.89%
Cc1onc(-c2ccccc2)c1C(=O)/C=C/N(C)C	12%
COc1ccc(Cl)cc1C(=O)Nc1nc2ccc(S(C)(=O)=O)cc2s1	12.3%
COc1ccc(/C=C(\C#N)C(=O)Nc2ccc3[nH]c(=O)[nH]c3c2)cc1	8.33%
CC1CCCN(C(C(=O)NC2CCCCC2)c2cc3c(cc2[N+](=O)[O-])OCO3)C1 (stereo not drawn)	7.89%
Cc1nn(CCc2n[nH]c(=S)n2-c2cccc(Cl)c2)c(C)c1[N+](=O)[O-]	8.14%
O=C(O)c1cc(S(=O)(=O)N2CCCC2)ccc1Br	4.87%
CN1CCc2c(sc3nc(NCCO)n(-c4cccc(Cl)c4)c(=O)c23)C1	3.45%
CN(CC(=O)Nc1ccc(F)c(F)c1F)C(=O)C1=NN(c2ccccc2)C(=O)CC1	3.64%
O=C(O)c1cccc(NC(=O)c2cccc(S(=O)(=O)N3CCc4ccccc43)c2)c1	11%
CSc1nnc(NC(=O)c2nc(S(=O)(=O)Cc3ccccc3)ncc2Cl)s1	10.8%
CCOC(=O)c1ccccc1C(=O)OCC	6.75%
C=CCNC(=O)c1ccccc1NC(=O)c1ccccc1C	10.2%

Structure (SMILES)	hERG current change (%, negative = inhibition) at 1uM
Cc1ccc(-n2ncc3c(NCc4ccccn4)ncnc32)c(C)c1	3.64%
c1ccc(-c2noc(C34CC5CC(CC(C5)C3)C4)n2)cc1	13.5%
COCCNC(=O)CN(C(=O)c1ccc(N2CCCC2)nc1)c1ccc(Cl)cc1	8.93%
O=C(O)c1nn2c(c1Br)NC(c1ccccc1)CC2C(F)(F)F (stereo not drawn)	12.3%
CCC1C2CC3C4N(C)c5ccccc5C45CC(C2C5O)N3[C@@H]1O (stereo partly drawn)	5.91%
Cc1ccc(C2=NCCn3nc4cc([N+](=O)[O-])ccc4c32)cc1	16.4%
Cc1cc(-c2nnc(CSc3nnc(NC(=O)c4ccc(C(C)(C)C)cc4)s3)o2)ccc1[N+](=O)[O-]	6.27%
Cc1cc2c(cc1S(=O)(=O)NC1CCCCC1C)OCC(=O)N2 (stereo not drawn)	5.01%
Cc1ccc(CNC(=O)C2CCN(S(=O)(=O)c3cccnc3)CC2)cc1	18.4%
Cc1cccc(-c2noc(CCC(=O)Nc3ccccc3)n2)c1	3.2%
Cc1ccc(-n2c(C)cc(C=C(C#N)C#N)c2C)cc1	16.2%
O=C(Nc1ccc(NC(=O)C2CCCCC2)nc1)c1ccco1	-0.667%
O=C(NCc1cn2ccsc2n1)Nc1ccc(Cl)cc1	9.77%
Cc1cc([N+](=O)[O-])nn1CC(=O)NCc1ccccc1	16.9%
O=C(CCNS(=O)(=O)c1ccccc1C(F)(F)F)NCc1ccc2c(c1)OCO2	5.56%
Oc1ccccc1C=Nc1cccc2ccccc12	10.4%
C#CCn1c(=NC(=O)CN2C(=O)CCC2=O)sc2cccc(OC)c21	8.09%
N#Cc1ccsc1NC(=O)CN1C(=O)NC2(CCCCC2)C1=O	11.1%
CCCCC1(C(=O)OC)NC(c2ccc(O)cc2)C2C(=O)N(c3ccccc3)C(=O)C21 (stereo not drawn)	10.3%
O=C(C[n+]1ccsc1)c1ccccc1.[Br-]	8.2%
Cc1c(NC(=O)CN2CCN(C(c3ccccc3)c3ccccc3)CC2)c(=O)n(-c2ccccc2)n1C	-3.69%
CCOc1ccccc1N1CCN(C(=O)CCCc2nc3ccccc3s2)CC1	0.595%
COc1cccc(C(=O)Nc2nnc(S(=O)(=O)N3CCCCC3)s2)c1	18.6%

Structure (SMILES)	hERG current change (%, negative = inhibition) at 1uM
CCC(=O)Nc1c(C)cc(C)cc1Cl	10.5%
Clc1ccc(Cc2ccc(Cl)nn2)c(Cl)c1	-2.56%
Cn1c(=O)[nH]c(=O)c2c1nc(Br)n2C/C=N/NC(N)=S	6.1%
NC(=O)N/N=C/c1cn(-c2ccccc2)nc1-c1cccnc1	7.48%
Cc1ccc(OCCN2C(=O)c3ccccc3C2=O)cc1	-8.33%
O=C(NCCc1csc(-c2ccc(C(F)(F)F)cc2)n1)c1cccs1	9.66%
N#C/C(C(N)=O)=C1/CCc2ccccc2N1	4.06%
CC1(C)CC(=O)C2=C(C1)OC(N)=C(C#N)C2c1ccc[nH]1 (stereo not drawn)	12.1%
CCc1ccc(Nc2ncccc2C#N)cc1	5.27%
Cn1c(=O)c2c(nc(CN3CCN(c4ccccc4)CC3)n2CCCc2ccccc2)n(C)c1=O	0.856%
CCOC(=O)c1c(NC(=O)C2CC(Cl)=CCC2C(=O)O)sc2c1CC(C)(C)OC2 (stereo not drawn)	18.8%
Oc1c(C(Nc2ccccn2)c2ccccn2)ccc2cccnc12 (stereo not drawn)	7.89%
O=C(OCC(=O)N(CCc1ccccc1)Cc1ccccc1)c1ccccc1NCCO	10.6%
O=C(Cc1cccs1)Nc1ccc(-c2nc3ccccc3[nH]2)cc1	9.62%
NS(=O)(=O)OCC1CCCCC1	13.4%
O=C(CCc1nc2cccnc2n1Cc1ccccc1)NCCc1ccc(Cl)cc1	-65.2%
O=C(NCC(O)c1ccccc1)c1ccccc1 (stereo not drawn)	15.2%
CC(C)NC(=O)COc1ccccc1C#N	12.1%
O=C(Nc1ccc2sccc2c1)c1ccc(Cl)s1	6.75%
O=C(CN1CCN(c2ccc(Cl)cc2)CC1)c1ccc2c(c1)OCO2	1.86%
c1ccc(N2CCN(Cc3ccsc3)CC2)nc1	-0.566%
